Reference: the RNAGym collection of RNA variant scans (doi:10.7554/elife.90254)
Read counts are not given, so values of variants with three or more changes are uncertain.

B1: OR4K15 (parent)
chain: GUUAACGGUCAUAGGCCAUGGAAACUAGGAGCACCAUUUCGCUGCCAGUGAAGAAAUGAACAAAGAAAAUCUGGGCCAGGCAGGCAUCAAAAGAAAUAGUCUUGCGCUCAACCAGAAAGUCUGUAAUCAUUUUAAGGGUA

Variants of: B1
Assay: self-cleavage, relative activity (ratio to wild type); higher = more cleavage; in vitro, sequencing; the parent is a self-cleaving ribozyme
C88U U100C U102A showed a self-cleavage of 1.92. In the case of A89G A94G U131C, the self-cleavage is reported as 1.13. In the case of A89G A95G A134U, the self-cleavage is reported as 1.11. With A89G A95G U132C the self-cleavage was 1.04. Variant A89G A96G U133C has a self-cleavage of 1.86. With A89G A110U U122C A129G the self-cleavage was 0.4. For A89G C107U U132C U133C, the self-cleavage was 0.01. Work on A89G U97C U132A A134G yielded a self-cleavage of 0.85. A89G U103A A140U showed a self-cleavage of 0.32. For A89G U103C A126G, the self-cleavage was 0.53. Work on A89G U124C U133G yielded a self-cleavage of 1.52. In the case of A89U A98G U103G A134G, the self-cleavage is reported as 0. For A89U A111G U122G, the self-cleavage was 0.01. Work on A89U A114G U132C yielded a self-cleavage of 0.23. Work on A89U A125U U130A yielded a self-cleavage of 1.39. Work on A90G A91G A94G A118G A125G yielded a self-cleavage of 0.05. A90G A91G U108A showed a self-cleavage of 0.03. In the case of A90G A92G A96G, the self-cleavage is reported as 0.1. Work on A90G A94G A98G U122A yielded a self-cleavage of 0.55. A90G A94G U130C showed a self-cleavage of 0.92. Variant A90G A95G A110G has a self-cleavage of 0.32. A90G A96G U132G U133C gave a self-cleavage of 1.56. A90G A98G A118G showed a self-cleavage of 0.05. For A90G A116G U122C, the self-cleavage was 0.11. A90G A116G U130C gave a self-cleavage of 0.08. In the case of A90G A118G A135G, the self-cleavage is reported as 0.41. A90G A118G U131C showed a self-cleavage of 0.35. A90G A126G U130C showed a self-cleavage of 0.74. A90G G123A A129U showed a self-cleavage of 0.3. Variant A90G U100C A118G has a self-cleavage of 0.63. In the case of A90G U100C U102A, the self-cleavage is reported as 1.96. A90G U103C U127C gave a self-cleavage of 0.47. A90G U103C U130C gave a self-cleavage of 0.17. A90G U108A U122C gave a self-cleavage of 0.01. In the case of A90G U108C U130C A140G, the self-cleavage is reported as 0. A90G U122A A126C gave a self-cleavage of 0.15. For A90G U124C A125G, the self-cleavage was 1.24. Work on A90U A91U A118G U131C yielded a self-cleavage of 0.99. Variant A90U A95G A125G has a self-cleavage of 1.34. In the case of A90U U120C U122C, the self-cleavage is reported as 1.42. A91G A94U A111G gave a self-cleavage of 0.04. With A91G A96G A98G U124A U131C the self-cleavage was 0.25. For A91G A96G U130C, the self-cleavage was 1.03. Work on A91G A110G A114G yielded a self-cleavage of 0.02. In the case of A91G A114C U132C, the self-cleavage is reported as 0.02. A91G A129U U139A gave a self-cleavage of 0.64. A91G C101U U131C showed a self-cleavage of 0.12. Variant A91G C105A A118G has a self-cleavage of 0. Variant A91G G99A A126G has a self-cleavage of 0.09. Variant A91G U100A U132C has a self-cleavage of 0.51. For A91G U102A A116G A140U, the self-cleavage was 0.45. A91G U102A U108C A114G showed a self-cleavage of 0. With A91G U103G U122A the self-cleavage was 0.02. Variant A91G U131C A135G has a self-cleavage of 0.51. A91U A92U U130C A140U showed a self-cleavage of 0.78. Variant A91U A118G U127A has a self-cleavage of 1.26. A91U U108A A117G A134U gave a self-cleavage of 0. Variant A92C U97C A98G U131C has a self-cleavage of 0.28. Variant A92G A94G G137U has a self-cleavage of 1.6. In the case of A92G A94G U108A, the self-cleavage is reported as 0.01. A92G A94U U100C gave a self-cleavage of 2.16. Work on A92G A98G U103A yielded a self-cleavage of 0.05. In the case of A92G A117G A125G U130C, the self-cleavage is reported as 0.18. In the case of A92G A117G U120C G136A, the self-cleavage is reported as 0.11. Work on A92G A125G U133C yielded a self-cleavage of 0.3. Variant A92G C105U A117G has a self-cleavage of 0.22. A92G G104A U130C gave a self-cleavage of 0.01. In the case of A92G G106A U139A, the self-cleavage is reported as 0. Work on A92G U100C A111G A114G yielded a self-cleavage of 0.02. A92G U102C A110G gave a self-cleavage of 0.27. A92G U103C C109U gave a self-cleavage of 0.09. With A92G U108A A116C the self-cleavage was 0.01. Work on A92G U108C A117G yielded a self-cleavage of 0.01. With A92G U122C A126U the self-cleavage was 1.15. Variant A92U A94U A98G U120C has a self-cleavage of 0.42. For A92U A98U A114C, the self-cleavage was 0.07. Variant A94C A110G A116U has a self-cleavage of 0.02. A94C U108A A126G gave a self-cleavage of 0. With A94G A95G G138A A140G the self-cleavage was 1.94. A94G A95G U139C gave a self-cleavage of 0.92. Variant A94G A96G A114U A116G A117G U131C has a self-cleavage of 0. A94G A96G U132C showed a self-cleavage of 0.75. Work on A94G A110U A118G yielded a self-cleavage of 1.17.
